Results on three molecules are retold here after patent US20240270818A1 (PETMEDIX, published 2024).

Experiment [1] has as its target NGF (species not stated at the place) (Homo sapiens (Human)) (UniProt P01138). Nature of the experiment: cell-based or functional assay.
The next experiment concerns the target T1, rat Nerve Growth Factor (rat, UniProt P25427 122-241, limits assumed).
T1 construct: Bought recombinant protein; also called rNGF; rat NGF
Nature of the experiment: SPR (Biacore 8K), fusion captured on Protein A chip. As to the method:
Binding affinity of fusion proteins to human and rat NGF was assessed using Biacore 8K (Cytiva). Briefly, Protein A Sensor Chip (Cytiva) was docked into Biacore 8K, equilibrated for 30′ at RT and then Running Buffer (10 mM HEPES pH7.4 150 mM NaCl 3 mM EDTA and 0.005% Tween20) was applied to the SPR chip surface.
These were immobilised using 90 see association at 10 uL/min as capturing step, followed by injection of running buffer to remove any unbound product.
Kinetics were assessed using multi-cycle kinetics with capture step method (30 see association-300 see dissociation) followed by regeneration step (0.1M Glycine pH2.2 contact time 60 see FR 30 uL/min). Kinetics quantification have been performed using Biacore Insight following standard analyses methods.

Experiment [2] has as its target T2, human Nerve Growth Factor (human, UniProt P01138 part only).
T2 construct: Bought recombinant protein; also called hNGF; human NGF
Nature of the experiment: SPR (Biacore 8K), fusion captured on Protein A chip, hNGF as analyte, multi-cycle kinetics. The procedure:
Briefly, Protein A Sensor Chip (Cytiva) was docked into Biacore 8K, equilibrated for 30′ at RT and then Running Buffer (10 mM HEPES pH7.4 150 mM NaCl 3 mM EDTA and 0.005% Tween20) was applied to the SPR chip surface.
PetML319, PetML308 or PetML309 was diluted into running buffer at 6 nM concentration. These have been immobilised using 90 see association at 10 uL/min as capturing step, followed by injection of running buffer to remove any unbound product.
Kinetics were assessed using multi-cycle kinetics with capture step method (30 see association-300 see dissociation) followed by regeneration step (0.1M Glycine pH2.2 contact time 60 see FR 30 uL/min). Kinetics quantification have been performed using Biacore Insight following standard analyses methods (Table 5).

Experiment [3] concerns the target NGF (species not stated at the place) (Homo sapiens (Human)) (UniProt P01138). Kind of experiment: SPR (Biacore 8K), fusion captured on Protein A chip, NGF as analyte; the table does not say human or rat NGF.

Sequence of rat Nerve Growth Factor (P25427 122-241 limits assumed): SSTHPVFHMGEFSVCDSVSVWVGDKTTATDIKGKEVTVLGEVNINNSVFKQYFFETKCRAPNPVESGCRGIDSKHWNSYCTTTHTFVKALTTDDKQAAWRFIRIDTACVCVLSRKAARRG
T2 sequence (P01138 122-241 limits assumed): as the sequence (P25427 122-241 limits assumed) above, with T3S, V6I, M9R, T37M, A60D, E65D, T92M, D94G, A117V, G120A counted along it

B1: PetML 308 - Human p75NTR ECD full stalk IgG1 (Fc fusion)
chain: KEACPTGLYTHSGECCKACNLGEGVAQPCGANQTVCEPCLDSVTFSDVVSATEPCKPCTECVGLQSMSAPCVEADDAVCRCAYGYYQDETTGRCEACRVCEAGSGLVFSCQDKQNTVCEECPDGTYSDEANHVDPCLPCTVCEDTERQLRECTRWADAECEEIPGRWITRSTPPEGSDSTAPSTQEPEAPPEQDLIASTVAGVVTTVMGGGG[sequence of human IgG1 Fc omitted]
In the case of B1, in experiment [1], the Bottom (%), PathHunter TrkA activation assay was 44.5%; the IC50 (nM), PathHunter TrkA activation assay turned out to be 282 nM; the Top (%), PathHunter TrkA activation assay is 105%. The binding result with rat Nerve Growth Factor is given as “binds”. In experiment [2], this molecule yielded a Kd of 5680 nM, a koff of 0.00194 s⁻¹ and a kon of 342 M⁻¹ s⁻¹. In addition, the Kd in experiment [3] amounted to 8.78 nM.

B2: PetML 309 - Human p75NTR ECD partial stalk IgG1 (Fc fusion)
chain: KEACPTGLYTHSGECCKACNLGEGVAQPCGANQTVCEPCLDSVTFSDVVSATEPCKPCTECVGLQSMSAPCVEADDAVCRCAYGYYQDETTGRCEACRVCEAGSGLVFSCQDKQNTVCEECPDGTYSDEANHVDPCLPCTVCEDTERQLRECTRWADAECEEIPGRWITRSTPPEGGGG[sequence of human IgG1 Fc omitted]
In experiment [1], B2 registered a Bottom (%), PathHunter TrkA activation assay of 28.7%; an IC50 (nM), PathHunter TrkA activation assay of 18.7 nM; a Top (%), PathHunter TrkA activation assay of 97.9%. The binding result with rat Nerve Growth Factor is given as “binds”. In experiment [2], this molecule returned a Kd of 24.8 nM, a koff of 0.0275 s⁻¹ and a kon of 1.11e+06 M⁻¹ s⁻¹. In addition, the Kd in experiment [3] is 2.31 nM.

B3: PetML 319 - Human p75NTR ECD no stalk (Fc fusion)
chain: KEACPTGLYTHSGECCKACNLGEGVAQPCGANQTVCEPCLDSVTFSDVVSATEPCKPCTECVGLQSMSAPCVEADDAVCRCAYGYYQDETTGRCEACRVCEAGSGLVFSCQDKQNTVCEECPDGTYSDEANHVDPCLPCTVCEDTERQLRECTRWADAECEEIPGGGG[sequence of human IgG1 Fc omitted]
Turning to B3, the IC50 (nM), PathHunter TrkA activation assay in experiment [1] came to 8.04 nM. In addition, the binding result in the experiment with rat Nerve Growth Factor is recorded as “binds”. In experiment [2], this molecule yielded a koff of 0.000659 s⁻¹ and a kon of 8.86e+06 M⁻¹ s⁻¹. The molecule also showed a Kd in experiment [3] of 0.358 nM.
